# Hit rate of the full screen: of about 360,000 compounds, about 7,500 (2.1%) were called active. The shares of active, inactive and inconclusive entries below differ from those in the screen. The call rests on the fitted dose curve; in most records, active means well fitted cell-killing curve with a large enough effect; inconclusive means small, poorly fitted or top-dose-only effect, or effect the other way, or another doubt; inactive means no such curve, though single readings can be large or run the other way. Potencies of inconclusive entries are left out as doubtful fits.
# Assay: qHTS for induction of synthetic lethality in tumor cells producing 2HG: qHTS for the HT-1080-IDH1KD cell line;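 on activity, negative = toxicity: 0% = DMSO wells and -100% = cell-free medium wells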
# Details: HT-1080 IDH1 knockdown viability, ATP luminescence, 48 h; activity, negative = toxicity: at 46.1 µM (top of the series) unless noted
# Outline: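 HT-1080-IDH1KD cells (IDH1 knocked down), 750/well in RPMI with 5% FBS, treated with compound 48 h at 37 degrees C. Viability by CellTiter-Glo luminescence, normalised to DMSO and no-cell wells; concentration-response curves classed.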
# Potency means the concentration at half of the fitted maximal effect; tags describe the fitted curve by direction and shape.
SMILES,Potency,"activity, negative = toxicity"
CSc1ncnc2c1ncn2CCCNc1ccc(C)c(C)c1,inactive,
CC12CCC(C(N)C1=O)C2(C)C (stereo unspecified),inactive,
COc1ccc(/C=C/C(=O)N2CCNC(=O)C2)c(OC)c1,inactive,
CCC/C=N/NC(=O)C1COc2ccccc2O1 (stereo unspecified),"inconclusive [cytotoxic, single point]",
Cc1ccc(CNn2cn[nH]c2=S)cc1,inactive,
O=C(/C=C/c1c(F)cccc1Cl)c1ccc(F)cc1,"inconclusive [cytotoxic, single point]",
CN(Cc1ccccc1)c1nc2c(c(=O)[nH]c(=O)n2C)n1CCOc1ccccc1,"inconclusive [cytotoxic, single point]",
COc1cccc(/C=N/NC(=O)c2oc3nc(-c4ccccc4)cc(-c4ccco4)c3c2N)c1,inactive,
COc1ccc2c(ccn2S(=O)(=O)c2ccccc2)c1,inactive,
Cc1ccc(NC(=S)N=Nc2c(O)n(C)c3ccc(S(=O)(=O)N4CCOCC4)cc23)cc1C,"inconclusive [cytotoxic, full curve, poor fit]",
C#CCN(C[C@H]1[C@H](OC(=O)Nc2c(C)noc2C)[C@H](OC(=O)Nc2c(C)noc2C)C[C@@H](C(=O)OC)[C@H]1C(=O)OC)S(=O)(=O)c1ccc(C)cc1,inactive,
COc1ccccc1NC(=O)c1cc2cc(Br)ccc2cc1O,"inconclusive [cytotoxic, single point]",
CC12CNCC(C)(CN(C(c3ccccc3)c3ccccc3)C1)C2,"inconclusive [cytotoxic, single point]",
CCN(CC)CCCNc1nc2cc(OC)c(OC)cc2c2nc(-c3ccccc3)nn12,"inconclusive [cytotoxic, single point]",
Cc1cc(C)cc(Nc2cc(=O)n(C3CCCCC3)c(=O)[nH]2)c1,"inconclusive [cytotoxic, single point]",
O=C(COC(=O)c1ccc(Cl)c(Cl)c1)Nc1cccnc1Cl,inactive,
Cc1ccc(C(=O)NC(=C(Cl)Cl)S(=O)(=O)c2ccc(C)cc2)cc1,"inconclusive [cytotoxic, single point]",
Cc1ccc2nc(C)cc(Nc3ccc4c(c3)OCCO4)c2c1,"inconclusive [cytotoxic, partial curve]",
c1ccc(COc2cccc(CN3CCN(c4ccccn4)CC3)c2)cc1,inactive,
Cc1cc(NS(=O)(=O)c2ccc(NC(=O)CSc3nc4ncc(Br)cc4[nH]3)cc2)nc(C)n1,inactive,
S=C(NC1CCCCC1)N1CCc2[nH]c3ccccc3c2C1,inactive,
O=c1[nH]c2cc([N+](=O)[O-])ccc2c2ccccc12,"inconclusive [cytotoxic, partial curve, poor fit]",
CC(C)C[C@H](NC(=O)c1[nH]cnc1C(=O)N[C@H](C)c1ccccc1)C(=O)OC(C)(C)C,"inconclusive [cytotoxic, single point]",
Cc1c(Cl)cccc1NC(=O)Nc1ccc(C(=O)N2CCCC2)cc1,"inconclusive [cytotoxic, partial curve, poor fit]",

SMILES,Potency,"activity, negative = toxicity"
CCc1nnc(NC(=O)CCC(=O)Nc2ccc(C)cc2)s1,inactive,
COc1cc(/C=N/N(C)c2ccccc2)cc(Cl)c1O,"inconclusive [cytotoxic, single point]",
CCOC(=O)[C@]12CCCC=C1N(CCC1=CCCCC1)C(=O)[C@H](CC(=O)NCc1ccc(C)o1)C2,"inconclusive [cytotoxic, single point]",
COc1cc(/C=C2/NC(=O)N(c3cccc(Cl)c3)C2=O)ccc1O,"inconclusive [cytotoxic, single point]",
COc1ccc(-n2c(NNC(C)=O)nc3sc4c(c3c2=O)CCCC4)cc1,inactive,
Cc1ccc(/C=N/NC(=O)CSc2nc3ccccc3c(=O)n2-c2ccccc2C)s1,inactive,
COC(=O)[C@]12CCCCC=C1N(Cc1ccc(Cl)cc1Cl)C(=O)[C@H](CC(=O)NCC1CCCCC1)C2,"inconclusive [cytotoxic, partial curve]",
Cc1cc(O)c(C(C)C)cc1NC(=O)Nc1cc(Cl)ccc1Cl,inactive,
CCN(CC)C(=O)CS(=O)(=O)CC(=O)Nc1cc(OCCOC)c(Cl)cc1Cl,inactive,
COc1ccccc1CNC(=O)c1cc(-c2cc(F)ccc2OC(C)C)n[nH]1,inactive,
CSC1SCC2C(=O)N(C)C(C(C)C)C(=O)OCC(NC(=O)c3cnc4ccccc4n3)C(=O)NC(C)C(=O)N(C)C1C(=O)N(C)C(C(C)C)C(=O)OCC(NC(=O)c1cnc3ccccc3n1)C(=O)NC(C)C(=O)N2C (stereo unspecified),active: 0.0012 µM,
Cc1ccc(-n2cc(CN3CCNC(=O)CC3)c(-c3cccc(C)c3)n2)cc1,"inconclusive [cytotoxic, single point]",
Cc1onc(-c2ccccc2)c1C(=O)Nc1nnc(COc2ccc(Cl)cc2)s1,"inconclusive [cytotoxic, single point]",
CC(=O)c1c(C)[nH]c(C(=O)OCC(=O)Nc2c(C)cccc2C)c1C,"inconclusive [cytotoxic, single point]",
O=C1CC(c2cc(F)ccc2F)c2cc3c(cc2N1)CCC3 (stereo unspecified),active: 2.59 µM,
COc1ccc(OC)c(S(=O)(=O)N2CCC(C(=O)NC3CCCC3)CC2)c1,inactive,
O=C(Cc1cccs1)NCCSc1c(-c2ccc(Cl)cc2)[nH]c2ccccc12,"inconclusive [cytotoxic, single point]",
CCCCC[n+]1cccc2c3ccccc3ccc21,active: 9.2 µM,
Cc1cc2nc(-c3ccc(Cl)cc3)c(Cc3cccc(F)c3)n2c(C)c1Br,"inconclusive [cytotoxic, single point]",
COC(=O)c1ccc(S(=O)(=O)N2CCC(c3nc4ccccc4o3)CC2)cc1,"inconclusive [cytotoxic, single point]",
O=c1n(CCCN2CCN(c3cccc(Cl)c3)CC2)nc2ccccn12,"inconclusive [cytotoxic, single point]",
O=C(CSc1ccc(Br)c2cccc(Cl)c12)Nc1ccc(S(=O)(=O)Nc2nccs2)cc1,"inconclusive [cytotoxic, partial curve]",
CCOc1ccc(NC(=O)CN(C)C(=O)c2c(-c3ccccc3Cl)noc2C)cc1OCC,inactive,
Cc1nc(N)nc(N)c1-c1ccc(Cl)c(Cl)c1,active: 0.58 µM,

SMILES,Potency,"activity, negative = toxicity"
OCCn1ccc(-c2ccccc2OCc2ccc(F)cc2)n1,inactive,
CC1=NNC(=O)/C1=C\c1cn(-c2ccccc2)nc1-c1ccccc1,active: 13 µM,
O=c1c2ccccc2oc2cc(-c3ccc4[nH]ccc4c3)ccc12,active: 3.66 µM,
Cc1nn(-c2ccccc2)c(N2CCCC2)c1/C=N/NC(=O)c1ccccc1O,"inconclusive [cytotoxic, single point]",
CCCn1c(SCC(=O)NCCCN2CCCC2=O)nc2ccccc2c1=O,inactive,
Cc1cc(NC(=O)Nc2ccc(Cl)c(Cl)c2)n(-c2ccccc2)n1,"inconclusive [cytotoxic, single point]",
COc1cc(-c2cc(C(=O)Nc3cccc(C(C)=O)c3)c3ccccc3n2)cc(OC)c1OC,"inconclusive [cytotoxic, single point]",
Cc1cc2c(cc1C)C(c1ccccc1F)CC(=O)N2 (stereo unspecified),"inconclusive [cytotoxic, single point]",
CC12CCC(C(=O)NNc3ccccc3)(C(=O)C1=O)C2(C)C (stereo unspecified),"inconclusive [cytotoxic, single point]",
CC(Sc1nncn1C)C(=O)Nc1ccc(Cl)cn1 (stereo unspecified),,inconclusive: 31.5%
CCCSc1cc(N2CCN(C)CC2)nc(-c2ccc(OC)cc2)n1,"inconclusive [cytotoxic, single point]",
CCOc1cc(C=NNC(=O)N(c2ccccc2)c2ccccc2)ccc1O,"inconclusive [cytotoxic, partial curve]",
O=c1c(Cl)c(N2CCCCC2)cnn1-c1nc2ccccc2[nH]1,"inconclusive [cytotoxic, single point]",
CC1=NN(C(=O)Cc2ccc([N+](=O)[O-])cc2)C(O)(c2ccccc2)C1 (stereo unspecified),"inconclusive [cytotoxic, single point]",
O=C(N/N=C/c1cccs1)C1COc2ccccc2O1 (stereo unspecified),"inconclusive [cytotoxic, single point]",
O=C(OCC(=O)N1CCc2ccccc21)c1c2c(nc3ccccc13)CCCC2,"inconclusive [cytotoxic, single point]",
Cc1sc2nc(SCC(=O)N(CCO)CCO)n(C3CCCCC3)c(=O)c2c1C,"inconclusive [cytotoxic, partial curve]",
CCC(O)(CC)C(=O)NN(C(=O)CCl)c1ccccc1,"inconclusive [cytotoxic, single point]",
CCCn1c(SCC(=O)N2CCCC(C)C2)nnc1-c1cccnc1 (stereo unspecified),inactive,
C=CCCC(=O)Nc1ccc(Br)cn1,"inconclusive [cytotoxic, full curve]",
CCN1C(=O)c2cccc3c(S(=O)(=O)Nc4ccc(O)c(C(=O)O)c4)ccc1c23,inactive,
COc1ccc(NC(=O)Nc2nc(C(N)C3CCCCC3)cs2)cc1 (stereo unspecified),"inconclusive [cytotoxic, single point]",
CCC(c1nnnn1-c1ccc2c(c1)OCCO2)N1CCN(c2ccccc2OC)CC1 (stereo unspecified),"inconclusive [cytotoxic, single point]",
